In PubChem BioAssay AID686978 (National Center for Advancing Translational Sciences (NCATS), 2013):
Screen size: about 420,000 compounds; about 64,000 (15%) were called active. This list was built around the results that the source calls inconclusive (neither active nor inactive); the mix of calls is not that of the screen. The call rests on the fitted dose curve; in most records, active means well fitted inhibition curve with a large enough effect; inconclusive means small, poorly fitted or top-dose-only effect; inactive means flat fitted curve, though single readings scatter. No potency is given beside an inconclusive call; the fits are too rough.

experiment: qHTS for Inhibitors of human tyrosyl-DNA phosphodiesterase 1 (TDP1): qHTS in cells in absence of CPT; details: DT40 Tdp1-/- hTDP1 cells, no CPT, ATP luminescence, 48 h; activity change, negative = growth inhibition: at 46.2 µM (top of the series) unless noted; further: nearly all actives have a fitted effect of over 55% in size
In short: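 Compound effects on proliferation are scored in DT40 Tdp1-/-;hTDP1 cells in the absence of CPT. ATP levels (CellTiter-Glo luminescence) are recorded after a ≥48 hr, 37 °C incubation.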
On the % scale 0 is the no-effect control and ±100 the full control effect; potency means the concentration at half of the fitted maximal effect; tags describe the fitted curve by direction and shape.

SMILES | Potency | activity change, negative = growth inhibition
O=C(NCCc1csc(-c2ccc(F)cc2)n1)c1ccc(Br)o1 | inconclusive [inhibitor, single point] | –
CCOc1cccc(C(=O)Nc2cccc(-c3nnc(-c4ccccc4)o3)c2)c1 | active: 18.4 µM | –
Cc1cccc(-c2nc(Cn3c(SCc4cccc(C(F)(F)F)c4)nc4ccncc43)c(C)o2)c1 | inconclusive [inhibitor, partial curve, poor fit] | –
CC(C)Oc1ccc(C(=O)Nc2ccccc2N2CCOCC2)cc1 | – | inactive: -14.8%
COC(=O)[C@H](Cc1ccc(O)cc1)NC(=O)Cn1cnc2c(OCc3ccccc3)ncnc21 | – | inactive: 0.0085%
CC(C)c1ccc(NC(=O)COC(=O)c2ccc(CN3CCCC3=O)cc2)cc1 | – | inactive: 13.6%
CCOC(=O)c1cnn(CCOC(=O)c2ccc(F)cc2)c1NC(=O)c1ccc(F)cc1 | inconclusive [inhibitor, single point] | –
CC(=O)c1ccccc1NC(=O)COc1ccc(N(C)S(=O)(=O)c2ccc(C)c(C)c2)cc1 | active: 11.6 µM | –
CC(C)c1ccc(CN2CCN(S(=O)(=O)c3ccc(Cl)s3)CC2)cc1 | inconclusive [inhibitor, single point] | –
CN1CCN(c2ncnc3ccc(-c4ccccc4Cl)cc23)CC1 | active: 20.6 µM | –
CCC(C)NC(=O)Nc1ccc(C)cc1C (centres undefined) | – | inactive: -21.2%
C[C@]12c3[nH]c4ccccc4c3CCN1C(=O)C(CC(=O)NCC13CC4CC(CC(C4)C1)C3)C[C@@H]2C(=O)N1CCOCC1 (some centres undefined) | active: 23.1 µM | –
Cc1c(NC(=O)c2cc(=O)c3cc(Cl)ccc3o2)c(=O)n(-c2ccccc2)n1C | – | inactive: -0.43%
COc1ccc(C(=O)Nc2ccccc2)cc1S(=O)(=O)Nc1cc(C)on1 | – | inactive: -3.62%
Cc1ccccc1C(=O)N1CCC(C(=O)Nc2ccc(S(=O)(=O)N3CCOCC3)cc2)CC1 | inconclusive [inhibitor, single point] | –
Cc1ccc(C(=O)N2CCN(c3ccc(NC(=O)c4cccnc4Cl)cc3)CC2)cc1 | – | inconclusive: -30.9% [inhibitor]
CC(C)(C)c1ccc(C2C3=C(CCCC3=O)NC3=C2C(=O)c2ccccc23)cc1 (centres undefined) | inconclusive [inhibitor, single point] | –
COc1cc(C(=O)/C=C/Nc2ccc(NC(C)=O)cc2)cc(OC)c1OC | inconclusive [inhibitor, partial curve] | –
Fc1ccc2c(c1)NC(c1ccncc1)=NC(c1cccs1)=N2 | inconclusive [inhibitor, single point] | –
O=C1[C@H]2[C@@H](c3ccccc3)N[C@]3(CCCN(Cc4ccc(Cl)cc4)C3=O)[C@H]2C(=O)N1Cc1ccccc1 | active: 8.2 µM | –
COC(=O)C1C(=O)CC(C)(O)C(C(=O)OC)C1/C=C/c1ccccc1 (centres undefined) | – | inactive: -22.6%
Cc1oc(-c2nc3ccccc3n2C)cc1C(=O)c1ccccc1 | active: 20.6 µM | –
O=C(NC1CCS(=O)(=O)C1)c1c(NC(=O)C2COc3ccccc3O2)sc2c1CCCC2 (centres undefined) | inconclusive [inhibitor, single point] | –
Cc1cc(NC(=O)c2cc(Cl)ccc2Cl)no1 | – | inactive: -3.71%
CN(C)N1C(=O)CC(N2CCCCC2)C1=O (centres undefined) | inconclusive [inhibitor, single point] | –

SMILES | Potency | activity change, negative = growth inhibition
O=C(CNS(=O)(=O)c1ccc(Cl)cc1)NNC(=O)c1cccnc1 | inconclusive [inhibitor, single point] | –
CC(=O)Nc1ccc(S(=O)(=O)Nc2ccc(Cl)cn2)cc1 | – | inactive: -5.01%
COc1ccccc1C1CCN(Cc2c(C)[nH]c3ccccc23)CC1 | active: 5.8 µM | –
CCOC(=O)c1cc(-c2cccc(O)c2)oc1C | inconclusive [inhibitor, single point] | –
CCOc1ccc(S(=O)(=O)N2CCN(C)CC2)c(C)c1C | inconclusive [inhibitor, full curve] | –
COc1ccc(CN2CCNC(=O)C2CC(=O)NCCCC2CCCC2)c(F)c1 (centres undefined) | inconclusive [inhibitor, single point] | –
COC(=O)c1cc2occc2n1Cc1nc(-c2ccc(C)cc2)oc1C | inconclusive [inhibitor, single point] | –
Cc1nc2c(C(=O)NC(C)c3ccccc3)cnn2c(C)c1Cc1ccccc1 (centres undefined) | inconclusive [inhibitor, single point] | –
CN(C)CCNc1nc2c(c(=O)[nH]c(=O)n2C)n1CC(O)COc1ccc(Cl)cc1Cl (centres undefined) | inconclusive [inhibitor, partial curve] | –
CCOC(=O)/C(C#N)=C/c1cn(CCOc2ccc(OC)cc2)c2ccccc12 | inconclusive [inhibitor, partial curve] | –
Cc1ccc(C(=O)N2CC(=O)Nc3ccc(F)cc3C2c2ccccc2)cc1 (centres undefined) | – | inactive: -24.7%
c1ccc(Cn2nnc3c(NCC4CC4)ncnc32)cc1 | inconclusive [inhibitor, single point] | –
CCc1nnc(NC(=O)CCC(=O)N2CCCC(O)C2)s1 (centres undefined) | – | inactive: 6.65%
Cc1ccccc1OCCN1CCCC1 | – | inactive: 4.33%
Cc1cccc(-n2nc([N+](=O)[O-])c(=NC3CCN(Cc4ccccc4)CC3)n2O)c1 | active: 11.6 µM | –
CCCCCCCCN1C(=O)[C@H](CC(=O)NCC2CCCCC2)C[C@@]2(C(=O)OCC)CCC=C12 | active: 18.4 µM | –
O=C(CSCc1ccco1)NC1CCCC1 | – | inactive: -3.88%
CC(C)Oc1ccc(N2CC(C(=O)Nc3ccccc3F)CC2=O)cc1 (centres undefined) | inconclusive [inhibitor, single point] | –
CCNC(=O)C1(C)CCN(C(=O)C(c2ccccc2)c2ccccc2)C1 (centres undefined) | – | inactive: -8.58%
CC1CCN(S(=O)(=O)c2ccc(C(=O)NCc3ccco3)cc2)CC1 | inconclusive [inhibitor, single point] | –
CC(OC(=O)/C=C/c1ccco1)C(=O)NC1CCCCC1 (centres undefined) | inconclusive [inhibitor, single point] | –
COc1ccccc1CC(=O)Nc1ccc(-c2nnc(-c3ccco3)o2)cc1 | active: 16.4 µM | –
Cc1ccc(S(=O)(=O)N2[C@H](CC(=O)c3cccc4ccccc34)OC[C@@H]2C(C)C)cc1 | inconclusive [inhibitor, single point] | –
COc1ccc(CN(CC(=O)NC2CCCC2)C(=O)c2ccc(-c3ccccc3)[nH]2)cc1 | inconclusive [inhibitor, partial curve, poor fit] | –
COc1cccc(CNC(=O)c2cc(S(=O)(=O)N3CCCC3)cn2C)c1 | – | inactive: -5.21%

SMILES | Potency | activity change, negative = growth inhibition
CCN(CC)C(=S)SC1=CCS(=O)(=O)C1 | – | inactive: -6.35%
N#Cc1cccc(NC(=O)N2CC[C@@]3(CCCN(S(=O)(=O)c4ccccc4)C3)C2)c1 | active: 20.6 µM | –
CCOC(=O)c1c(S(=O)(=O)N2CCCC2)c(C)n(C)c1C | – | inactive: -17.6%
CSc1ccc(C2Nc3ccccc3-c3cc(C)nn32)cc1 (centres undefined) | – | inactive: -13.7%
CCn1ncc(CN2CCC(n3nccc3NC(=O)c3ccccc3Cl)CC2)c1C | – | inactive: -15%
Cc1ccc(S(=O)(=O)N2CCCC(C(=O)N3CCN(c4ccccc4)CC3)C2)cc1 (centres undefined) | active: 18.4 µM | –
COc1ccc(/C=N/Nc2nc(-c3ccc(C)cc3)c(C#N)c(=O)[nH]2)cc1 | – | inactive: -13.2%
CCOC(=O)C1(CCOc2ccccc2)CCN(CCCn2cccn2)CC1 | inconclusive [inhibitor, partial curve] | –
CC1CCCCN1S(=O)(=O)c1ccc(N(C(=O)c2cnccn2)C(C(=O)NC2CCCC2)c2cccs2)cc1 (centres undefined) | active: 20.6 µM | –
CCOc1ccccc1C(=O)NCC(=O)NCc1ccc(S(=O)(=O)N2CCOCC2)cc1 | – | inactive: -18.4%
Cc1cc(OC(=O)c2ccc(OC(C)C)cc2)c([N+](=O)[O-])c(=O)[nH]1 | – | inactive: -21.1%
CCOC(=O)C1CCN(C(=O)COC(=O)COc2ccccc2OC)CC1 | – | inactive: -20.4%
CCNc1ncc2nc(-c3cn(C)c4ccccc34)c(=O)n(-c3ccc(OC)cc3)c2n1 | inconclusive [inhibitor, single point] | –
O=C(c1ccc(S(=O)(=O)N2CCCC2)cc1)N1CCN(c2ccccc2F)CC1 | inconclusive [inhibitor, single point] | –
O=C(CN1CCN(C(=O)C2CCN(C(=O)/C=C/c3ccccc3)CC2)CC1)Nc1ccccc1Cl | active: 18.4 µM | –
Cc1cc(C(=O)COc2nncc3ccccc23)c(C)n1C | inconclusive [inhibitor, single point] | –
COc1cc(=O)n2c(c1C(=O)N(C)Cc1nonc1C)CCN(Cc1cc(C)c(C)cc1C)CC2 | inconclusive [inhibitor, single point] | –
O=C(NCc1ccc(Cl)cc1)C1CCCN(c2ncnc3c2nc2n3CCCCC2)C1 (centres undefined) | inconclusive [inhibitor, single point] | –
Cc1cccc(NC(=S)N=Nc2c(O)n(C)c3ccc(S(=O)(=O)N4CCOCC4)cc23)c1 | active: 3.26 µM | –
Cc1ccc(S(=O)(=O)N/N=C2/CC(c3ccccc3)Oc3ccccc32)cc1[N+](=O)[O-] (centres undefined) | – | inactive: -12%
CCCCN(C(C)=O)c1c(CC)nc2ccc(C(=O)Nc3cccc(OCC(=O)N(C)C)c3)cn12 | inconclusive [inhibitor, partial curve, poor fit] | –
CCc1ccc(N(CC(=O)NC(C)(C)C)C(=O)CCC(=O)Nc2ccccn2)cc1 | – | inactive: 18.1%
COCC(=O)N1CCC(Oc2ccc(C(=O)N(C)C3CCCCC3)cc2)CC1 | – | inactive: -0.293%
CCOC(=O)C1(Cc2ccccc2C)CCCN(Cc2cn(C)nc2C)C1 (centres undefined) | inconclusive [inhibitor, full curve, poor fit] | –
